The values that follow come from patent US8735609B2, “Bryostatin analogues, synthetic methods and uses” (The Board of Trustees of the Leland Stanford Junior …, priority 2007, dated 2014).

The subject of the assay is NCI-H322M. Kind of assay: cells. From the text:
Another useful method for assessing anticancer activities of compounds of the invention involves the multiple-human cancer cell line screening assays run by the National Cancer Institute. This screening panel, which involves approximately 60 different human cancer cell lines, is a useful indicator of in vivo antitumor activity for a broad variety of tumor types, such as leukemia, non-small cell lung, colon, central nervous system (CNS), melanoma, ovarian, renal, prostate, and breast cancers. Antitumor activities can be expressed in terms of ED50 (or GI50), where ED50 is the molar concentration of compound effective to reduce cell growth by 50%. Compounds with lower ED50 values tend to have greater anticancer activities than compounds with higher ED50 values. Example 7 describes a P388 murine lymphocytic leukemia cell assay which measures the ability of compounds of the invention to inhibit cellular growth.
Anticancer data were obtained in vitro for C26 desmethyl bryostatin analogue 702.1 (Example 3A) tested against a spectrum of different NCI human cancer cell-lines associated with various cancer conditions. Data obtained with Bryostatin-1 are included for comparison. Growth inhibition (GI50) values are expressed as the log of molar concentration at half-maximum inhibition.

For the compound `CCC/C=C/C=C/C(=O)O[C@H]1/C(=C/C(=O)OC)C[C@H]2C[C@H]([C@@H](C)O)OC(=O)C[C@H](O)C[C@@H]3C[C@H](OC(C)=O)C(C)(C)[C@](O)(C[C@@H]4C/C(=C/C(=O)OC)C[C@H](/C=C/C(C)(C)[C@]1(O)O2)O4)O3` [Bryo-1, Bryostatin-1, reference compound], where the note is “NSC Lung”, the “Growth inhibition (GI50)” value is recorded as −6.00 log of molar concentration.
For the compound `CCCCCCCC(=O)O[C@H]1/C(=C/C(=O)OC)C[C@H]2C[C@H](CO)OC(=O)C[C@H](O)C[C@@H]3CCC[C@H](C[C@@H]4CCO[C@H](/C=C/C(C)(C)[C@]1(O)O2)O4)O3` [Formula IIa (702.1)], the GI50 (Homo sapiens, read-out: Growth inhibition (GI50) (converted)) was 41.7 µM.
